Consider 20 compounds from patent US7517874B2 (priority 2007, dated 2009).

pEC50: −log10 of the molar value.

The target of the first assay is human CB2 receptor (hCB2) (Homo sapiens, UniProt P34972). As to the kind of experiment: cell-based. The class given is cell-based.
Sequence of human CB2 receptor (hCB2) (P34972 whole entry): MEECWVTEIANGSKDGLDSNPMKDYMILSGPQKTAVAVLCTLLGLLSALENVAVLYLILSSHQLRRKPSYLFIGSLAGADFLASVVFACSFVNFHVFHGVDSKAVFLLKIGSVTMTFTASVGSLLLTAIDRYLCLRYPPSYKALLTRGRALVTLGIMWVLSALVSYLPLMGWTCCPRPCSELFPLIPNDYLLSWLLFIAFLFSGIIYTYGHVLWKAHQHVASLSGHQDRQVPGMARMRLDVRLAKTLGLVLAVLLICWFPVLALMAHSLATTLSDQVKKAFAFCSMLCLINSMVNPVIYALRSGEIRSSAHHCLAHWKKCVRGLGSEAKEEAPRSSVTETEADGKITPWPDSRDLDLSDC
Details: not given
In turn, `CNC(=O)[C@@H](NC(=O)c1nc(-c2ccccc2)n2c1CN(Cc1cccn1C)CC2)C(C)(C)C` [Compound 71, (S)-N-(3,3-dimethyl-1-(methylamino)-1-oxobutan-2-yl)-7-((1-methyl-1H-pyrrol-2-yl)methyl)-3-phenyl-5,6,7,8-tetrahydroimidazo[1,5-a]pyrazine-1-carboxamide] had a negative-log EC50 (pEC50) below 5.00. Consider `CNC(=O)[C@@H](NC(=O)c1nc(-c2ccc(F)c(C(=O)O)c2)n2c1CN(C)CCC2)C(C)(C)C` [Compound 411], for which the pEC50 was below 5.00.

The assay is the same for the next values; noted with them: agonist or inverse agonist at hCB2.
With `CC(C)(C)OC(=O)N1CCn2c(-c3ccc(Cl)cc3)nc(C(=O)N[C@H](CO)C(C)(C)C)c2C1` [Compound 34, (S)-tert-butyl 3-(4-chlorophenyl)-1-(1-hydroxy-3,3-dimethylbutan-2-ylcarbamoyl)-5,6-dihydroimidazo[1,5-a]pyrazine-7(8H)-carboxylate], the “+/− HCB2” value is “−”. For the compound `CCS(=O)(=O)N1CCn2c(-c3ccccc3)nc(C(=O)N[C@H](C(=O)NC)C(C)(C)C)c2C1` [Compound 91, (S)-N-(3,3-dimethyl-1-(methylamino)-1-oxobutan-2-yl)-7-(ethylsulfonyl)-3-phenyl-5,6,7,8-tetrahydroimidazo[1,5-a]pyrazine-1-carboxamide], the “+/− HCB2” value is “+”. As for `CNC(=O)[C@@H](NC(=O)c1nc(-c2ccccc2)n2c1CN(S(=O)(=O)c1ccccc1[N+](=O)[O-])CC2)C(C)(C)C` [Compound 97, (S)-N-(3,3-dimethyl-1-(methylamino)-1-oxobutan-2-yl)-7-(2-nitrophenylsulfonyl)-3-phenyl-5,6,7,8-tetrahydroimidazo[1,5-a]pyrazine-1-carboxamide], the “+/− HCB2” value is reported as “−”.

With `CCN1CCn2c(-c3ccccc3)nc(C(=O)N[C@H](C)C3CCCCC3)c2C1` [Compound 164, (R)-N-(1-cyclohexylethyl)-7-ethyl-3-phenyl-5,6,7,8-tetrahydroimidazo[1,5-a]pyrazine-1-carboxamide], the “+/− HCB2” value is “+”.

Take `C[C@@H](NC(=O)c1nc(-c2ccccc2)n2c1CNCC2)C1CCCCC1` [Compound 45, (R)-N-(1-cyclohexylethyl)-3-phenyl-5,6,7,8-tetrahydroimidazo[1,5-a]pyrazine-1-carboxamide]: the “+/− HCB2” value was “+”. The same measure, in the same setting: to `CNC(=O)[C@@H](NC(=O)c1nc(-c2ccccc2)n2c1CN(CC1CC1)CC2)C(C)(C)C` [Compound 56, (S)-7-(cyclopropylmethyl)-N-(3,3-dimethyl-1-(methylamino)-1-oxobutan-2-yl)-3-phenyl-5,6,7,8-tetrahydroimidazo[1,5-a]pyrazine-1-carboxamide] belongs “−”; to `CNC(=O)[C@H](CC(C)C)NC(=O)c1nc(-c2ccc(Cl)cc2F)n2c1CN(C)CC2` [Compound 276, (S)-3-(4-chloro-2-fluorophenyl)-7-methyl-N-(4-methyl-1-(methylamino)-1-oxopentan-2-yl)-5,6,7,8-tetrahydroimidazo[1,5-a]pyrazine-1-carboxamide], “+”; to `CNC(=O)[C@@H](NC(=O)c1nc(-c2ccccc2C(F)(F)F)n2c1CN(C)CCC2)C(C)(C)C` [Compound 399, (S)-N-(3,3-dimethyl-1-(methylamino)-1-oxobutan-2-yl)-8-methyl-3-(2-(trifluoromethyl)phenyl)-6,7,8,9-tetrahydro-5H-imidazo[1,5-a][1,4]diazepine-1-carboxamide], “+”.

On to `CNC(=O)[C@@H](NC(=O)c1nc(-c2cccs2)n2c1CNCC2)C(C)(C)C` [Compound 16, (S)-N-(3,3-dimethyl-1-(methylamino)-1-oxobutan-2-yl)-3-(thiophen-2-yl)-5,6,7,8-tetrahydroimidazo[1,5-a]pyrazine-1-carboxamide], for which the “+/− HCB2” value is “+”. Still for that read-out and setting: to `Cc1nnc([C@@H](NC(=O)c2nc(-c3ccccc3)n3c2CN(CC(C)C)CC3)C(C)(C)C)o1` [Compound 202, (S)-N-(2,2-dimethyl-1-(5-methyl-1,3,4-oxadiazol-2-yl)propyl)-7-isobutyl-3-phenyl-5,6,7,8-tetrahydroimidazo[1,5-a]pyrazine-1-carboxamide] belongs “+”. Still for that read-out and setting: to `CCN1CCCn2c(-c3ccccc3)nc(C(=O)N[C@H](c3nc(C)no3)C(C)(C)C)c2C1` [Compound 524, (S)-N-(2,2-dimethyl-1-(3-methyl-1,2,4-oxadiazol-5-yl)propyl)-8-ethyl-3-phenyl-6,7,8,9-tetrahydro-5H-imidazo[1,5-a][1,4]diazepine-1-carboxamide] belongs “+”; to `CNC(=O)[C@@H](NC(=O)c1nc(C2=CCCCC2)n2c1CN(C)CCC2)C(C)(C)C` [Compound 396, (S)-3-cyclohexenyl-N-(3,3-dimethyl-1-(methylamino)-1-oxobutan-2-yl)-8-methyl-6,7,8,9-tetrahydro-5H-imidazo[1,5-a][1,4]diazepine-1-carboxamide], “+”; to `CNC(=O)[C@@H](NC(=O)c1nc(CCCN2CCCC2)n2c1CN(C)CCC2)C(C)(C)C` [Compound 502, (S)-N-(3,3-dimethyl-1-(methylamino)-1-oxobutan-2-yl)-8-methyl-3-(3-(pyrrolidin-1-yl)propyl)-6,7,8,9-tetrahydro-5H-imidazo[1,5-a][1,4]diazepine-1-carboxamide], “+”. Still for that read-out and setting: to `CNC(=O)[C@@H](NC(=O)c1nc(-c2ccccc2)n2c1CN(Cc1cncnc1)CC2)C(C)(C)C` [Compound 62, (S)-N-(3,3-dimethyl-1-(methylamino)-1-oxobutan-2-yl)-3-phenyl-7-(pyrimidin-5-ylmethyl)-5,6,7,8-tetrahydroimidazo[1,5-a]pyrazine-1-carboxamide] belongs “−”; to `CNC(=O)[C@@H](NC(=O)c1nc(-c2csc3ccccc23)n2c1CN(C)CCC2)C(C)(C)C` [Compound 354, (S)-3-(benzo[b]thiophen-3-yl)-N-(3,3-dimethyl-1-(methylamino)-1-oxobutan-2-yl)-8-methyl-6,7,8,9-tetrahydro-5H-imidazo[1,5-a][1,4]diazepine-1-carboxamide], “+”; to `CNC(=O)[C@@H](NC(=O)c1nc(C2=CCCCCC2)n2c1CN(C)CC2)C(C)(C)C` [Compound 272, (S,E)-3-cycloheptenyl-N-(3,3-dimethyl-1-(methylamino)-1-oxobutan-2-yl)-7-methyl-5,6,7,8-tetrahydroimidazo[1,5-a]pyrazine-1-carboxamide], “+”.

Take `CNC(=O)[C@@H](NC(=O)c1nc(C2=CCC(C)CC2)n2c1CN(C)CCC2)C(C)(C)C` (stereo partly drawn) [Compound 449, N-((S)-3,3-dimethyl-1-(methylamino)-1-oxobutan-2-yl)-8-methyl-3-(4-methylcyclohex-1-enyl)-6,7,8,9-tetrahydro-5H-imidazo[1,5-a][1,4]diazepine-1-carboxamide]: the “+/− HCB2” value is on record as “+”. For `CNC(=O)[C@@H](NC(=O)c1nc(/C=C/CN2CCCCC2)n2c1CN(C)CCC2)C(C)(C)C` [Compound 510, (S,E)-N-(3,3-dimethyl-1-(methylamino)-1-oxobutan-2-yl)-8-methyl-3-(3-(piperidin-1-yl)prop-1-enyl)-6,7,8,9-tetrahydro-5H-imidazo[1,5-a][1,4]diazepine-1-carboxamide], the “+/− HCB2” value is “+”.
